# The campaign covered roughly 410,000 compounds. About 530 (0.13%) were called active. The inconclusive results got no clear call from the source; some entries with a clear call stand among them for comparison. Calls follow the shape of the dose curve; as a rule, active = well fitted inhibition curve with a large enough effect; inconclusive = small, poorly fitted or top-dose-only effect, or another doubt; inactive = no such curve, though single readings can be large or run the other way. Where the call is inconclusive, the potency comes from a doubtful curve fit.
# Assay: qHTS of GLP-1 Receptor Inverse Agonists: Cytotox Screen
# Settings: HEK293 cAMP-luciferase reporter cells, luminescence, 24 h; series mostly up to 38.3 µM
# In short: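 MLSMR compounds, 24 hr on cells at 37 deg C/5% CO2; luminescence after luciferase reagent (12 min RT). Inhibition counted as the undesired cytotoxic outcome.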
# Potency is read from the fitted curve at half-maximal effect.
row,SMILES,Potency
1,CCn1nc(C)c(Br)c1C(=O)Sc1ccccc1Cl,"inconclusive: 11.2 µM [inhibitor, single point]"
2,CCOc1cccc2sc(N(CCN(CC)CC)C(=O)c3cccc(N4C(=O)CCC4=O)c3)nc12,inactive
3,CN(C)CCCN(C(=O)c1ccc(S(=O)(=O)N2CCc3ccccc32)cc1)c1nc2ccc(Cl)cc2s1,"inconclusive: 28.2 µM [inhibitor, single point]"
4,CN(C)Cc1cc(C(C)(C)c2ccccc2)ccc1O,inactive
5,COc1cccc(-c2c(C(=O)N/N=C/c3sccc3C)nnn2-c2nonc2N)c1,inactive
6,N=c1c(-c2nc3ccccc3[nH]2)cc(C(=O)c2ccco2)nn1-c1ccccc1,"inconclusive: 0.501 µM [inhibitor, full curve, poor fit]"
7,Cc1c(NC(=O)c2coc(=O)c(Br)c2)c(=O)n(-c2ccccc2)n1C,"inconclusive: 14.1 µM [inhibitor, single point]"
8,CCOC(=O)C1CCCN(C(=S)NC(=O)c2cc(Br)ccc2Cl)C1 (stereo not drawn),"inconclusive: 10 µM [inhibitor, partial curve]"
9,CC(C)(C)c1ccc(C(=O)N2CCC(=O)N(C(COCc3ccccc3)Cc3ccccc3)CC2)cc1 (stereo not drawn),"inconclusive: 31.6 µM [inhibitor, single point]"
10,Nc1cc([N+](=O)[O-])ccc1Nc1ccc(O)cc1,"inconclusive: 8.91 µM [inhibitor, partial curve, poor fit]"
11,CCN1CCN(C(=O)c2ccc3c(c2)N(Cc2ccc(Cl)cc2)C(=O)c2ccccc2S3=O)CC1 (stereo not drawn),inactive
12,Cn1c(=O)c2cc(NC(=O)Cc3cccc4ccccc34)ccc2n1-c1ccccc1,"inconclusive: 12.6 µM [inhibitor, single point]"
13,S=C(NCCc1ccccc1)Nc1ccc(Br)cn1,"inconclusive: 5.62 µM [inhibitor, full curve, poor fit]"
14,Cc1ccc2[nH]c(=O)c(CN(CCCN(C)C)C(=S)NCCc3ccccc3)cc2c1,"inconclusive: 11.2 µM [inhibitor, single point]"
15,O=c1[nH]c(O)c(N=Nc2ccc(Cl)c(S(=O)(=O)Nc3ccccc3Cl)c2)c(=O)[nH]1,inactive
16,CCOC(=O)c1c(C)n(-c2ccc(C)cc2)c2ccc(OCC(O)CN3CCN(C)CC3)cc12 (stereo not drawn),"inconclusive: 28.2 µM [inhibitor, single point]"
17,COc1cccc(NC(=S)N(Cc2ccco2)C(C)c2ccco2)c1 (stereo not drawn),inactive
18,CC(C)(C)c1ccc(C(=O)N/N=C/c2ccccn2)cc1,"inconclusive: 10 µM [inhibitor, partial curve, poor fit]"
19,COc1ccc(CCNC(=O)CSc2nnc(CNc3ccc(Cl)cc3)o2)cc1OC,"inconclusive: 11.2 µM [inhibitor, single point]"
20,COCCN(C(=O)c1snc(C(N)=O)c1N)C(C(=O)NC1CCCCC1)c1ccc(N(C)C)cc1 (stereo not drawn),inactive
21,CCCc1nc2nc(C)c(NS(=O)(=O)c3ccc([N+](=O)[O-])cc3)c(=O)n2[nH]1,"inconclusive: 2.51 µM [inhibitor, partial curve, poor fit]"
22,COc1cc(CNC(=O)c2cc3ccccc3oc2=O)cc(OC)c1OC,"inconclusive: 28.2 µM [inhibitor, single point]"

row,SMILES,Potency
1,COc1ccc(S(=O)(=O)NCCS(=O)(=O)N2CCN(c3ccccc3F)CC2)cc1,inactive
2,Cc1cccc(Nc2nc(N)nc(CCl)n2)c1,"inconclusive: 22.4 µM [inhibitor, single point]"
3,CCN(CC)CCCNC(=S)N(Cc1cccs1)Cc1cc2cc3c(cc2[nH]c1=O)OCCO3,"inconclusive: 28.2 µM [inhibitor, single point]"
4,Cc1cc(-c2nc(C)c(C(=O)NN)s2)no1,"inconclusive: 22.4 µM [inhibitor, single point]"
5,CC(C)c1ccc2c(c1)C(N1CCN(C)CC1)Cc1cccnc1S2 (stereo not drawn),"inconclusive: 31.6 µM [inhibitor, single point]"
6,Cc1ccc(-n2c(=O)c3c(cnn3C)n(CC(=O)Nc3cc(C)ccc3C)c2=O)cc1,inactive
7,CCSc1nc2c(c(=O)n1-c1ccc(F)cc1)SCC2,"inconclusive: 22.4 µM [inhibitor, single point]"
8,Cc1oc2ncnc(N3CCOCC3)c2c1C(=O)NCc1ccccc1,inactive
9,Cc1csc(NC(=O)Nc2cccc(Cl)c2)n1,inactive
10,NC(=O)CC[C@@H]1NC(=O)[C@H](CO)NC(=O)c2cc([N+](=O)[O-])cc(I)c2NCCCC[C@@H](C(N)=O)NC(=O)[C@H](Cc2ccc(O)cc2)NC1=O,"inconclusive: 0.501 µM [inhibitor, full curve, poor fit]"
11,Cc1ccc(SCC(=O)NCCSCc2ccccc2)cc1,inactive
12,O=C(NCc1ccco1)c1cc(-c2ccccc2)on1,inactive
13,Cc1cccc(CSC(Nc2ccc(F)cc2)=C(C#N)C#N)c1,"inconclusive: 10 µM [inhibitor, single point]"
14,O=C1C=C(c2ccccc2)C(=O)N1Nc1ccccc1,"inconclusive: 28.2 µM [inhibitor, single point]"
15,O=C(N/N=C/c1ccc(OC(F)F)cc1)c1ccc(CSc2nc3ccccc3[nH]2)cc1,"inconclusive: 11.2 µM [inhibitor, partial curve, poor fit]"
16,CC(=O)c1ccc(Nc2nc3ccccc3nc2-n2nc(C)cc2C)cc1,inactive
17,O=C(CN1CCN(S(=O)(=O)N2CCCCC2)CC1)Nc1cc(Cl)cc(Cl)c1,inactive
18,CC1=C(C(=O)OCc2ccc3c(c2)OCO3)C(c2ccccc2)NC(=O)N1 (stereo not drawn),"inconclusive: 11.2 µM [inhibitor, partial curve]"
19,CCCn1nc(C(=O)Nc2ccc(S(=O)(=O)Nc3nccs3)cc2)c2ccccc2c1=O,inactive
20,O=C(O)c1ccc(N/N=C/c2cc3c(cc2[N+](=O)[O-])OCO3)cc1,"inconclusive: 14.1 µM [inhibitor, partial curve, poor fit]"
21,COc1ccc(CCNC(=O)Cn2c(=O)cnc3ccccc32)cc1,"inconclusive: 25.1 µM [inhibitor, single point]"

# — PubChem BioAssay AID624418 (National Center for Advancing Translational Sciences (NCATS), 2012)
